# The whole screen tested about 110,000 compounds, of which about 230 (0.21%) showed an effect of 50% or more. This is one part of the list.
# Biological target: DPAP1 (Plasmodium falciparum, UniProt Q8IIJ9)
# Assay: primary screen, percent inhibition; read by cleavage of a fluorogenic dipeptide substrate; higher = more effect of the substance
# Parameters: species or system P. falciparum D10 trophozoite lysates; single well
# 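Further: 30 min substrate incubation versus DMSO and 10 µM JCP410 controls.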
# Chain of DPAP1 (Q8IIJ9 whole entry, looked up): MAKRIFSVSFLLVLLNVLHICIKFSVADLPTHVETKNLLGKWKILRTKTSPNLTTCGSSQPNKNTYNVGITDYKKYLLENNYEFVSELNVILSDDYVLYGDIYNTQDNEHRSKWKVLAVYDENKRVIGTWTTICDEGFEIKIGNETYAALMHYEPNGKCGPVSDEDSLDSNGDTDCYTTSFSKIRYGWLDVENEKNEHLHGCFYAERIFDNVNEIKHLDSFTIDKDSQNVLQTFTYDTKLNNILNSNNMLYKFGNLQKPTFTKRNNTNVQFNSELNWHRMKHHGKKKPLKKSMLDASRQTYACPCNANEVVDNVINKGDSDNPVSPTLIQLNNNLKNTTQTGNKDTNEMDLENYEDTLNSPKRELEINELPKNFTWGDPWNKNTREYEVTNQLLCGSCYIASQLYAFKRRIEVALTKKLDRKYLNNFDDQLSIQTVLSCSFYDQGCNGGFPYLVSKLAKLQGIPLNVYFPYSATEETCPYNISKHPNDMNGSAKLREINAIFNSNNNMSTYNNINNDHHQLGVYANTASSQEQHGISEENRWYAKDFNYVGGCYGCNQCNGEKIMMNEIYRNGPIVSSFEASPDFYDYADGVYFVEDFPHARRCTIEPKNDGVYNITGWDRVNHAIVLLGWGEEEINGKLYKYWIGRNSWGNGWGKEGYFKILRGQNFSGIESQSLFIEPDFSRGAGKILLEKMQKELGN
row,SMILES,% Inhibition @ 10 uM
1,Cc1cccc(C)c1-c1ccc(C(=O)N[C@@H](CC(C)C)C(=O)NCC#N)cc1,-1.41%
2,Cc1cc(C)c(S(=O)(=O)Nc2ccc(O)cc2)cc1C,-9.13%
3,Cc1ccc(OC(C)C(=O)Nc2ccc(C)cc2C)cc1 (stereo not shown),-4.02%
4,COc1ccc(-c2c(C)nn3c(O)c(Cl)c(C)nc23)cc1,-3.44%
5,Cc1cccc(CCNC(=O)c2nnc(Cc3ccc(F)cc3)o2)c1,-1.59%
6,Cc1ccc(NC(=O)Cc2ccc(F)cc2F)cc1,-3.94%
7,C=Cc1ccc(Cn2c(C)c(CNCc3cccc(Cl)c3)c(C(=O)O)c2C)cc1,4.53%
8,COc1ccc(CCc2nc(-c3ccc(C(F)(F)F)cc3)no2)cc1,-2.4%
9,COc1ccc(S(=O)(=O)N2CC(C)CC(C)C2)cc1 (stereo not shown),-2.54%
10,CCn1c(SCc2ccc(Cl)cc2Cl)nc2c1c(=O)n(C)c(=O)n2C,12%
11,CC(NC(=O)Cc1ccccc1)c1cc2c(cc1Br)OCCCO2 (stereo not shown),3.8%
12,Cn1cccc1CNCCc1ccc(S(N)(=O)=O)cc1,-0.183%
13,CC1=C(C(=O)N2CCCCC2)C(c2ccccc2OC(F)F)n2c(nc3ccccc32)N1 (stereo not shown),-0.326%
14,COc1ccccc1NC1=C(C(=O)c2ccccc2)N(C)S(=O)(=O)c2ccccc21,5.49%
15,CCOCCCNC(=O)c1cnc2ccc(S(=O)(=O)N3CCC4(CC3)OCCO4)cc2c1O,-2.21%
16,CCCC(=O)NS(=O)(=O)c1ccc(NC(=O)c2ccc(Cl)cc2)cc1,0.909%
17,COc1ccc2c(c1)C(=O)N(Cc1ccccc1)C(=O)/C2=C/N1CCOCC1,-1.79%
18,Cc1nc2c(-c3ccccc3)c(C)nn2c(C)c1CC(=O)NCc1cccnc1,-2.45%
19,Cc1cccc(Nc2nc(-c3ccccn3)cs2)n1,1.74%
20,O=C(O)C1CCCN1S(=O)(=O)c1ccc2nc(O)c(O)nc2c1 (stereo not shown),-9.6%
21,CCn1ncc(C2=NOC(C(=O)NCc3ccc(F)cc3)C2)c1C (stereo not shown),-4.85%
22,Cc1ccccc1C(=O)c1cccn1CC(=O)O,1.43%
23,CNC(=O)CCCN1C(=O)c2ccccc2Sc2ncccc21,-5.68%
24,CCCN1CNC(=S)N(CCc2ccccc2)C1,-5.62%
25,CCc1ccc(C(C)NC(=O)Cn2cnc3c(=O)n(C)c(=O)n(C)c32)cc1 (stereo not shown),1.88%

row,SMILES,% Inhibition @ 10 uM
1,O=C1c2ccccc2-c2nnc(-c3ccc(Cl)cc3)cc21,-0.736%
2,CC(=O)c1c(-c2ccccc2)nc2n(Cc3ccccc3)c3ccccc3n12,5%
3,COc1cccc(S(=O)(=O)NCc2ccc(C(=O)Nc3ccc(Br)cc3F)cc2)c1,-0.545%
4,COc1ccc(NC2=C(Cl)C(=O)N(Cc3ccccc3)C2=O)c(OC)c1,-0.661%
5,COc1ccc(-c2nc(-c3cc4ccc(O)cc4oc3=O)cs2)cc1,0.23%
6,Cc1nn(C)c(C)c1C1C(C#N)=C(N)N(c2cccc(Br)c2)C2=C1C(=O)CC(C)(C)C2 (stereo not shown),0.722%
7,CC(=O)c1ccc(C(=O)N(CCN(C)C)c2nc3c(C)c(C)ccc3s2)cc1,6.32%
8,CC[C@H](C)[C@H](NC(=O)c1cccc(O)c1)C(=O)N[C@@H](CCc1ccccc1)C(=O)CO,6.4%
9,Cc1ccccc1OCC(=O)NC1CC2CCC1C2 (stereo not shown),4.57%
10,N#CC1=C(N)Oc2c(O)nc(O)nc2C1c1ccccc1 (stereo not shown),-2.62%
11,CCN(CC)C(=O)c1ccc2c(c1)nc(N1CCOCC1)n2Cc1ccccc1,-12.2%
12,CCCCCC(=O)Nc1sc(C)c(C)c1C(N)=O,0.317%
13,Cc1nn(-c2ccc(F)cc2)c(-n2cccc2)c1C(=O)N1CCOCC1,-2.3%
14,Cc1nn(CC(=O)NCCN2CCC(Cc3ccccc3)CC2)c(=O)c2nn(-c3ccccc3)c(C)c12,-0.665%
15,CCOC(=O)N1CCC(NC2c3ccccc3-c3ccccc32)CC1,1.38%
16,Cc1nn(-c2ccc(F)cc2)c(O)c1/C=N/c1ccc(S(=O)(=O)N2CCCCC2)cc1,-2.89%
17,Cc1ccc(C(=O)O)cc1NC(=O)c1ccc(Cn2nc(C)c(Br)c2C)o1,14.3%
18,COc1ccc(C(=O)Nc2cc(Cl)ccc2C)c(OC)c1,-0.849%
19,Cc1ccc(S(=O)(=O)NC(=O)C(=O)NS(=O)(=O)c2ccc(C)cc2)cc1,0.413%
20,COCCN1C(=O)/C(=C/c2ccc(C(=O)O)cc2)S/C1=N\c1ccccc1,-2.15%
21,CCCCn1c(=N)n(CC(O)c2ccc(OCC)cc2)c2ccccc21 (stereo not shown),5.6%
22,CCCC/N=c1/c(-c2ccccc2)c(O)c1=O,-4.68%
23,CSc1ccc(CCNC(=O)C(CCS(C)(=O)=O)N2Cc3ccccc3C2=O)cc1 (stereo not shown),-0.234%
24,CC1=Nc2c(c(=O)[nH]c(=O)n2-c2ccc(Cl)cc2)C(C(F)(F)F)(C(F)(F)F)N1,-1.52%
25,CN(C)c1ccc(S(=O)(=O)c2ccc(Cl)cc2)cc1,-1.29%

row,SMILES,% Inhibition @ 10 uM
1,Cc1nn(CC(=O)N2CCC(N3CCCCC3)CC2)c(=O)c2nn(-c3ccccc3)c(C)c12,-0.486%
2,O=C(COc1ccc(Cl)cc1)OCCCNC1C2CC3CC(C2)CC1C3 (stereo not shown),-0.0953%
3,CC(C)Cn1cc(C(=O)NCCc2ccccc2Cl)c2c3ccccc3n(C)c2c1=O,-3.12%
4,COc1ccc(-c2c(C)nn3c(-c4ccccc4)cc(C)nc23)cc1,-0.436%
5,COc1ccc(CNC(=O)c2ccccc2Cl)cc1,-6.27%
6,COc1ccc(S(=O)(=O)NCCCC(=O)O)cc1,-3.41%
7,O=C1N=C(Nc2cccnc2)S/C1=C/c1cccc(F)c1,1.69%
8,CCCNc1ncccc1NC(=O)CCC(=O)O,3.96%
9,Brc1ccc(-c2nc(C3CCCCC3)no2)cc1,0.147%
10,Cc1c(CNCC2CCCO2)c(C(=O)O)c(C)n1Cc1ccc(F)cc1Cl (stereo not shown),-5.49%
11,CSc1nc(-c2ccco2)nn1C(=O)c1ccco1,-0.958%
12,COc1ccccc1CC(=O)N1CCN(c2ccc(F)cc2)CC1,3.24%
13,O=[N+]([O-])c1ccc2nc(O)c(/C=C(\O)c3ccccc3)nc2c1,-4.35%
14,COc1ccc(C(=O)Nc2ccc([S+](O)Nc3nccs3)cc2)cc1 (stereo not shown),6.19%
15,CCOc1ccc2nc(NC(=O)C3CCCN(c4ncnc5onc(C)c45)C3)sc2c1 (stereo not shown),5.98%
16,COc1ccc(CNc2nc3cc(OC)c(OC)cc3c3nc(-c4cccnc4)nn23)cc1,-2.42%
17,CC1=C(C(=O)OCc2ccccc2)C(c2cccs2)C(C#N)=C(N)O1 (stereo not shown),1.41%
18,CCC(O)c1nc2ccccc2n1Cc1ccccc1C (stereo not shown),3.66%
19,CC(Sc1cccc2cccc(C(=O)O)c12)C(=O)O (stereo not shown),0.64%
20,COc1ccc(N(CC(=O)N2CCCCCC2)S(C)(=O)=O)c(OC)c1,-0.173%
21,c1csc(-c2nnc(-c3ccc4c(c3)OCO4)o2)c1,1.72%
22,CCCCC1CCC(C(=O)OCC(=O)c2ccc(Br)cc2)CC1 (stereo not shown),-2.42%
23,COc1ccccc1-c1nc(-c2ccc(-c3ccc(C)cc3)nc2OC)no1,-1.33%
24,CCN(CC)CCNC(=O)CN1CCCC1=O,2.86%
25,O=C(O)c1cccn1Cc1ccc(Cl)cc1,-4.97%

row,SMILES,% Inhibition @ 10 uM
1,COc1ccc(C)cc1S(=O)(=O)N1CCN(c2cc(C)ccc2C)CC1,-2.19%
2,Nc1ccc(Sc2nc3ccccc3s2)c(Cl)c1,0.0345%
3,CC(NC(=O)Cn1cccc1C(=O)c1ccccc1)c1ccccc1 (stereo not shown),2.76%
4,CCOC(=O)C1CCCN(Cc2ccccc2)C1 (stereo not shown),1.48%
5,COCCNC(=O)Cn1cnc2onc(-c3ccc(F)cc3)c2c1=O,-5.13%
6,COc1cccc(-c2nc(CSCC(=O)NC3CCCC(C)C3C)c(C)o2)c1 (stereo not shown),0.689%
7,C=Cc1ccc(Cn2c(C(=O)O)c(C=O)c3ccccc32)cc1,1.63%
8,O=C(NCc1ccc2c(c1)OCO2)c1cnn2ccccc12,-2.92%
9,COc1ccc2c(Cl)c(C(=O)Nc3ccc(C(C)=O)cc3)sc2c1,-2.45%
10,CC1CN(S(=O)(=O)c2ccc(Cl)c(C(=O)Nc3ccccc3O)c2)CC(C)O1 (stereo not shown),-5.49%
11,O=C(Nc1ccc(Cl)cn1)c1cc2c(Cl)nc3ccccc3c2s1,4.41%
12,Cc1nc2ccc(S(=O)(=O)NCC(=O)NCc3ccc(F)cc3)cc2s1,-0.72%
13,O=C(O)c1ccccc1NS(=O)(=O)/C=C/c1ccccc1,-6.68%
14,CC1(C)[C@H]2CC=C(CN3CCN(Cc4ccccc4)CC3)[C@@H]1C2,3.48%
15,CCC12CN3CC(C)(CN(C1)C3c1ccc(OCc3ccccc3)cc1)C2=O (stereo not shown),-10.8%
16,CCOc1ccc(C(=O)N2CCN(c3ccccc3)CC2)cc1,2.43%
17,CC1CCC(NC(=O)CCc2nc(O)c3c4c(sc3n2)CCCC4)CC1 (stereo not shown),-4.86%
18,NC(=O)C1(N2CCCCC2)CCN(C(=O)c2ccc(F)cc2)CC1,-5.27%
19,c1ccc(Cn2c(-c3ccccn3)nc3ccccc32)cc1,-4.18%
20,COc1cc2c(cc1OC)C1C(C(=O)N3CC(C)CC(C)C3)c3ccccc3C(=O)N1CC2 (stereo not shown),-4.53%
21,CCCCn1c(=O)[nH]c2nc3cc(NC(C)=O)ccc3nc2c1=O,-8.15%
22,COc1ccc(-c2c(C)[n+]([O-])c(C)c(C)[n+]2[O-])cc1OC,0.147%
23,CC(=O)NC1C(=O)N=C(SCC(=O)NC(C)c2ccccc2)NC1=O (stereo not shown),3.81%
24,Cc1ccc(OCCNC(=O)/C=C/c2ccco2)cc1C,-1.24%
25,Cc1ccccc1C1C(=O)N(C2CCCCC2)CC(=O)N1C1CCCCC1 (stereo not shown),-3.94%
